{"source": "ChEMBL document CHEMBL4888484", "about": "“Replenishing the malaria drug discovery pipeline: Screening and hit evaluation of the MMV Hit Generation Library 1 (HGL1) against asexual blood stage Plasmodium falciparum ,using a nano luciferase reporter read-out” (2022)", "note": "Hit rate of the full screen: of about 150,000 compounds, about 540 (0.36%) showed an effect of 50% or more. This is one part of the list.", "data": [{"tested_on": "Plasmodium falciparum", "test": "Primary screen in NF54 nanoGlo assay, in single point, at 2uM, 72h; a lower Z score goes with more inhibition", "format": "functional, Erythrocyte", "conditions": "timepoint 72 hour", "units": {"% Inhibition": "%"}, "values": [{"compound": "O=C(CN1C(=O)NC2(CCCC2)C1=O)c1ccc(OC(F)F)cc1", "% Inhibition": -4, "Z score": 0.57}, {"compound": "CCCNC(=O)N1CCOC[C@H](Oc2ccc(C(F)(F)F)cn2)C1", "% Inhibition": 15, "Z score": -1.71}, {"compound": "Cc1ccc(NC(=O)[C@H]2CCCN(c3cc(=O)n(C)c(=O)n3C)C2)cc1", "% Inhibition": -4, "Z score": 0.59}, {"compound": "CO[C@H]1CCN(Cc2ccnc3ccccc23)C1", "% Inhibition": -1, "Z score": 0.15}, {"compound": "O=C(NCc1cccs1)OCC(F)(F)F", "% Inhibition": 1, "Z score": -0.08}, {"compound": "CCn1ncnc1[C@H](C)NC(=O)c1ccc(-c2c(C)[nH]c(=O)[nH]c2=O)cc1", "% Inhibition": -10, "Z score": 1.21}, {"compound": "Nc1c2c(-c3cccs3)nc(NCCc3cccs3)nc2nn1-c1ccccc1", "% Inhibition": -16, "Z score": 2.4}, {"compound": "Cc1nc(CCn2ccccc2=O)n(-c2ccc(F)cc2F)n1", "% Inhibition": -1, "Z score": 0.11}, {"compound": "CC(C)n1c(=O)[nH]c2cc(C(=O)N3CCO[C@@H](C)C3)ccc2c1=O", "% Inhibition": -2, "Z score": 0.27}, {"compound": "O=C(NCC1CCCO1)C1COC2(CCN(C(=O)c3ccccc3F)CC2)N1C(=O)c1cccc(F)c1", "note": "(stereo unspecified)", "% Inhibition": -11, "Z score": 2.14}, {"compound": "CC(=O)N(c1ccc(N(C(C)=O)S(=O)(=O)c2ccc(Cl)cc2)c2ccccc12)S(=O)(=O)c1ccc(Cl)cc1", "% Inhibition": -9, "Z score": 1.69}, {"compound": "CC(C)[C@H](OC(=O)c1[nH]c2ccc(Cl)cc2c1Cl)C(=O)N1CCOCC1", "% Inhibition": 24, "Z score": -2.66}, {"compound": "Cc1ncsc1CN(C)C(=O)[C@@H]1COCCN1", "% Inhibition": -5, "Z score": 0.7}, {"compound": "CCCN(C[C@H]1CCCCO1)C(=O)c1c(C)c(C)n[nH]c1=O", "% Inhibition": -2, "Z score": 0.31}, {"compound": "CCOc1ccc2c(c1)[C@@H](NC(=O)Nc1cc(C)nn1-c1ccccn1)CCO2", "% Inhibition": 3, "Z score": -0.59}, {"compound": "COc1ccc(CNc2ccc(Cl)c(N3CCNC3=O)c2)cc1O", "% Inhibition": -10, "Z score": 1.6}, {"compound": "COC1CC(C(=O)N(C)c2ccc(C)cc2F)C1", "note": "(stereo unspecified)", "% Inhibition": -14, "Z score": 1.43}, {"compound": "C#CC[C@H](Nc1ncc(Br)cn1)C(N)=O", "% Inhibition": 2, "Z score": -0.26}, {"compound": "O=C(Cn1nc(-c2ccccc2)ccc1=O)N1CCOCC1", "% Inhibition": 28, "Z score": -3.2}, {"compound": "CCOc1ccccc1NC(=O)Cn1cnc2c(-c3ccncc3)nsc2c1=O", "% Inhibition": -13, "Z score": 1.63}, {"compound": "COC(=O)COc1cc(-c2ccc(OC)cc2)nc2ccc(NC(=O)c3ccc(OC)cc3)cc12", "% Inhibition": 13, "Z score": -1.3}, {"compound": "CC(C)Oc1ccc(-c2ccc(NC(=O)N(C)C[C@H]3C[C@@H](O)C3)c(F)c2)cc1", "% Inhibition": -8, "Z score": 1.01}, {"compound": "CN1CC[C@](C)(CN(C)Cc2[nH]c3ccccc3c2Cl)C1", "% Inhibition": -5, "Z score": 0.69}, {"compound": "CN1CCN(c2nc3nccc(-c4ccc(Cl)cc4)c3c(=O)[nH]2)CC1", "% Inhibition": -13, "Z score": 1.82}, {"compound": "CN(CCCn1cccn1)Cc1cc(=O)n2ccsc2n1", "% Inhibition": 7, "Z score": -1.38}, {"compound": "O=C1CCc2cc(NCc3ccco3)ccc2N1CC1CC1", "% Inhibition": -17, "Z score": 2.56}, {"compound": "CC(=O)CC(=O)Nc1ccc(Cl)cc1C", "% Inhibition": -10, "Z score": 1.26}, {"compound": "O=C(c1nnn2c1c(=O)[nH]c1cc(F)ccc12)N1CCCCC1", "% Inhibition": 1, "Z score": -0.23}, {"compound": "CC(=O)Nc1cccc(NC(=O)c2cn(CC3(O)CCN(Cc4ccccc4)CC3)nn2)c1", "% Inhibition": 30, "Z score": -3.44}, {"compound": "COc1ccc(Cl)cc1S(=O)(=O)c1cnc(N2CCC[C@H](C)C2)nc1N", "% Inhibition": 0, "Z score": -0.05}, {"compound": "C=C(C)CC(C)C(=O)N1CCN(CC2CCCS2(=O)=O)CC1", "note": "(stereo unspecified)", "% Inhibition": -2, "Z score": 0.33}, {"compound": "N#CCCn1cc(CNc2ccc(Cl)c(Cl)c2)c(-c2ccccc2)n1", "% Inhibition": 4, "Z score": -0.4}, {"compound": "CCC(CC)c1nnc(NC(=O)c2cc(C)oc2C)s1", "% Inhibition": -16, "Z score": 1.34}, {"compound": "CCc1nccn1CCN(C)CCN(C)C1CCCC1", "% Inhibition": 2, "Z score": -0.26}, {"compound": "CC(C)c1nccc(CN2CC[C@H](CNC(=O)C(C)(C)C)C2)n1", "% Inhibition": -9, "Z score": 1.25}, {"compound": "COc1ccc(-c2cc(C3CC3)ncn2)c(C)c1", "% Inhibition": -4, "Z score": 0.65}, {"compound": "CC(C)(C)Oc1cc(C(=O)NCc2ccc3c(c2)OCO3)ccn1", "% Inhibition": 3, "Z score": -0.35}, {"compound": "CCC(=O)NCCc1ncc(C)n1C1CCCCCCC1", "% Inhibition": 0, "Z score": -0.05}, {"compound": "CC(C)Oc1ccc(CN2CC(c3nc(-c4ccsc4)nn3C)C2)cc1", "% Inhibition": 26, "Z score": -3.56}, {"compound": "c1coc(CCCN2CCC[C@H](c3nnc4ccccn34)C2)c1", "% Inhibition": -5, "Z score": 0.74}, {"compound": "CCN(CC)CCCNC(=O)c1ccc(-c2[nH]nc3c2CCCc2ccccc2-3)cc1", "% Inhibition": -6, "Z score": 0.84}, {"compound": "Cc1cccc(N2CCC(NC(=O)[C@@H]3CCCCN3C(=O)c3ccccc3)CC2)c1", "% Inhibition": 7, "Z score": -1.18}, {"compound": "N#Cc1cnc(NCCCCc2ccnc(N)c2)c(Cl)c1", "% Inhibition": -7, "Z score": 0.86}, {"compound": "CCOC(=O)c1nn(Cc2ccccn2)c2c1CN(C(=O)c1cc(C)nn1C)CC2", "% Inhibition": -9, "Z score": 1.09}, {"compound": "CC(C)C1(C)CC1C(=O)N1CCN(C(=O)CN2CCOCC2)CC1", "note": "(stereo unspecified)", "% Inhibition": -3, "Z score": 0.6}, {"compound": "COc1ccnc(NC2CCN(C(=O)Nc3ccc(C4CC4)c(F)c3)CC2)n1", "% Inhibition": -9, "Z score": 0.82}, {"compound": "O=C(Nc1cc(S(=O)(=O)N2CCCC2)ccc1OCC(F)(F)F)[C@@H]1CC=CCC1", "% Inhibition": 6, "Z score": -0.63}, {"compound": "Cc1csc([C@H](C)OC(=O)c2cccnc2)n1", "% Inhibition": -7, "Z score": 1.04}, {"compound": "Cc1c(C(=O)N2CC3CCC2C3)cnn1-c1ncc2c(n1)-c1ccccc1CCC2", "note": "(stereo unspecified)", "% Inhibition": 27, "Z score": -3.58}, {"compound": "COc1ccccc1NC(=O)CC1CS(=O)(=O)CC1CC(=O)Nc1ccccc1OC", "note": "(stereo unspecified)", "% Inhibition": 39, "Z score": -1.29}, {"compound": "O=S(=O)(Nc1nc(-c2ccccn2)cs1)c1cccc(F)c1", "% Inhibition": -16, "Z score": 2.06}, {"compound": "O=C(NC1(CN2CCN(c3ccc(F)cc3)CC2)CC1)c1cc(O)ncn1", "% Inhibition": -4, "Z score": 0.72}, {"compound": "NC(=O)C[C@H]1CCCN(S(=O)(=O)CC2CCCC2)C1", "% Inhibition": -13, "Z score": 1.64}]}]}
